According to PubChem BioAssay AID504333 (National Center for Advancing Translational Sciences (NCATS), 2011):
Hit rate of the full screen: of about 360,000 compounds, about 16,000 (4.4%) were called active. The inconclusive results got no clear call from the source; some entries with a clear call stand among them for comparison. Calls follow the shape of the dose curve; as a rule, active = well fitted inhibition curve with a large enough effect; inconclusive = small, poorly fitted or top-dose-only effect; inactive = no such curve, though single readings can be large or run the other way. A potency beside an inconclusive call is a rough fit, not a confirmed value.

These compounds were tested against Bromodomain adjacent to zinc finger domain protein 2B (Homo sapiens) (UniProt Q9UIF8) (assay: qHTS Assay for Inhibitors of BAZ2B). Conditions: AlphaScreen BAZ2B-H3K14Ac peptide displacement; activity change, negative = inhibition: at 114 µM (top of the series) unless noted.
Sequence of UniProt Q9UIF8 (Q9UIF8 whole entry, looked up, the tested form may be a part): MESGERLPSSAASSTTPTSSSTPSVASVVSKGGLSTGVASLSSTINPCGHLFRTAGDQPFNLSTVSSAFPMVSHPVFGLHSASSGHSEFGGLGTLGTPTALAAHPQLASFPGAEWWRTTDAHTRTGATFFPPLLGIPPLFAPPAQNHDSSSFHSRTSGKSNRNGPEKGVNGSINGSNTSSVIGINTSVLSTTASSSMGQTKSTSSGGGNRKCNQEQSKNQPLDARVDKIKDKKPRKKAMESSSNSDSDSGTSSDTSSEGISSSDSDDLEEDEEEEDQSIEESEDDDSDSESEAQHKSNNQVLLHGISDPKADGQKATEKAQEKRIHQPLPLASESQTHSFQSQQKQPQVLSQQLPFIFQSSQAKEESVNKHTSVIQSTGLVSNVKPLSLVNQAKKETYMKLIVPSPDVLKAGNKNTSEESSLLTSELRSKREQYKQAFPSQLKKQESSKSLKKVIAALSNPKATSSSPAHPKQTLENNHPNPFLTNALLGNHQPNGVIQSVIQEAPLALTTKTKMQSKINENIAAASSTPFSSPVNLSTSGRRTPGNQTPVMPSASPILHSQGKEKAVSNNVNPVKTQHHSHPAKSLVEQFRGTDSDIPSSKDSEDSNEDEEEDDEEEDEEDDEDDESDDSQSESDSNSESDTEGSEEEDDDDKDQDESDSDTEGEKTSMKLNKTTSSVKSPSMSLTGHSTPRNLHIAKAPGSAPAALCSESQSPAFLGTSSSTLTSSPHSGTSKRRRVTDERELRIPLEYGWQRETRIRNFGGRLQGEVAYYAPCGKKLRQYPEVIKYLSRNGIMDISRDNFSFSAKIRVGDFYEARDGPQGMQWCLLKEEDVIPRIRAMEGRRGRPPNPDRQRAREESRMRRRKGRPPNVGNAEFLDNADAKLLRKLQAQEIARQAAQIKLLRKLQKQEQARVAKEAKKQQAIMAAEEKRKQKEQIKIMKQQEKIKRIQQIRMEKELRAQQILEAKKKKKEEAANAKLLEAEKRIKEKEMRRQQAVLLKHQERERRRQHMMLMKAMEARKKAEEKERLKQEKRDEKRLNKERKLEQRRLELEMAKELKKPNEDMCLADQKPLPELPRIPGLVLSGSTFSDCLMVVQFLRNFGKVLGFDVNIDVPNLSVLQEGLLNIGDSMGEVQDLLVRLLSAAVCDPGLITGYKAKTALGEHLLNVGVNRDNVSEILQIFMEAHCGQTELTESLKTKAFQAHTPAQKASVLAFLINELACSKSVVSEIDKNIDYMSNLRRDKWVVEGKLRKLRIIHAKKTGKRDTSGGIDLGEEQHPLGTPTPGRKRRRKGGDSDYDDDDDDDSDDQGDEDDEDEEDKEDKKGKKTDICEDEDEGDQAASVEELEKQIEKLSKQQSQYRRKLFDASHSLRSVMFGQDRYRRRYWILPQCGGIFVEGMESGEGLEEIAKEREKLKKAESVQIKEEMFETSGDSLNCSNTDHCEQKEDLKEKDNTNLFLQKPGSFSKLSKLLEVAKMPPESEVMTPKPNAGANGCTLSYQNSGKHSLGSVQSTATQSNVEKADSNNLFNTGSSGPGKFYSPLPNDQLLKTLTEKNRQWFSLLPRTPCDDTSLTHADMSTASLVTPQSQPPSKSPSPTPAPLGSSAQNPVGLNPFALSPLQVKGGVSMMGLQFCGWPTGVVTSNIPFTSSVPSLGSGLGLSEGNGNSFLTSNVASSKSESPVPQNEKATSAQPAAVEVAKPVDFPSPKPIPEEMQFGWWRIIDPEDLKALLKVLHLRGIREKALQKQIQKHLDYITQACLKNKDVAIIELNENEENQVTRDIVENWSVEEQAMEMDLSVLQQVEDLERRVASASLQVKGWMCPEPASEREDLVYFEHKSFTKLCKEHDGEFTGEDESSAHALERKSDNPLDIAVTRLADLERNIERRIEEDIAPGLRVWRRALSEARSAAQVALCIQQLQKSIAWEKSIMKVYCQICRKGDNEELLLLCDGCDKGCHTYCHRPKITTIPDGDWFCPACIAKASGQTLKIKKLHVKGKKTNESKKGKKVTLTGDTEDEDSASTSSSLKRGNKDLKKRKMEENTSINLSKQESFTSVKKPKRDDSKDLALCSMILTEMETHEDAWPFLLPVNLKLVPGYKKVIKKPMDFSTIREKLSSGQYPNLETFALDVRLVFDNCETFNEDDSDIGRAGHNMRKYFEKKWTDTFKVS
In short: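 Complex of BAZ2B and biotin-H3K14Ac (50 nM apiece) forms over 30 min at RT, then faces library compounds up to 110 uM for another 30 min; AlphaScreen beads added, 20 min dark incubation, luminescence read.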
% is scaled to controls: 0 for no effect and ±100 for the full control effect; potency is read from the fitted curve at half-maximal effect; tags tell the direction and shape of the fitted curve.
Also: nearly all actives have a fitted effect of over 60% in size.

SMILES | Potency | activity change, negative = inhibition
C#CCOCCOCCOCCNc1nc(N2CCN(C(=O)Cn3cc(CC(C)O)nn3)CC2)nc(N2CCN(C(=O)[C@H]([C@@H](C)CC)n3cc(CCCN=C(N)N)nn3)CC2)n1 (some centres undefined) | inconclusive: 89.1 µM [inhibitor, single point] | 
COCc1cc(C)nc(OCC(=O)N/N=C/c2cc(C)n(-c3c(C)cccc3C)c2C)c1C#N | inconclusive: 89.1 µM [inhibitor, single point] | 
COC(=O)[C@@]1(Cc2ccc(F)cc2)[C@H]2c3cc(C(=O)N(C)C)n(Cc4ccccn4)c3C[C@H]2CN1C(=O)c1ccccc1 | inconclusive: 70.8 µM [inhibitor, single point] | 
C=CCNC(=S)NNc1nc2c(c(=O)[nH]1)C1(CCCC1)Cc1ccccc1-2 | inconclusive: 31.6 µM [inhibitor, partial curve] | 
Cc1ccc(Nc2nc3ccccc3c3nnc(C)n23)cc1Cl |  | inactive: -9.88%
Cc1ccc(CNc2ccc(O)cc2)cc1 | active: 31.6 µM | 
C1CNCCOCCNCCN1 | active: 44.7 µM | 
COc1ccc(Cl)cc1NC(=O)CCN1C(=O)c2ccccc2Sc2ncccc21 |  | inactive: -8%
CCCn1c(C(CO)Nc2nc(-c3cccc(Br)c3)cs2)nc2ccccc21 (centres undefined) | inconclusive: 44.7 µM [inhibitor, partial curve] | 
CCOc1ccc(CNC(=O)CCCc2cn(C)c3ccccc23)cc1 | inconclusive: 35.5 µM [inhibitor, partial curve] | 
Cc1cc(NC(=O)CSc2nc3cc(Cl)ccc3c(=O)n2Cc2ccco2)no1 |  | inactive: -20.2%
Cc1c(C(=O)NCCNc2ncc(C(F)(F)F)cc2Cl)cccc1[N+](=O)[O-] |  | inactive: -1.24%
Cc1n[nH]c(=S)n(NC(=O)/C=C/C(=O)Nn2c(=S)[nH]nc(C)c2=O)c1=O | active: 25.1 µM | 
CCN1CCN(CC2COc3ccccc3O2)CC1 (centres undefined) | inconclusive: 89.1 µM [inhibitor, single point] | 
O=C(NNC(=O)c1cc(-c2ccncc2)nc2ccccc12)c1cccc(Cl)c1 | inconclusive: 89.1 µM [inhibitor, single point] | 
Cc1ccc(NC(=O)c2cc(=O)[nH]c3ccc(S(=O)(=O)N4CCOCC4)cc23)nc1 | inconclusive: 79.4 µM [inhibitor, single point] | 
COC(=O)CCC(=O)OC1(C)C(=O)C=C2C=C(C3CC3)N(CCCCO)C=C2C1=O (centres undefined) |  | inactive: -15.4%
O=C(CSc1c(Cl)cccc1Cl)NC1CCCc2ccccc21 (centres undefined) | inconclusive: 89.1 µM [inhibitor, single point] | 
CCCNC(=O)[C@H]1N2C(=O)c3c(ccc(OC)c3OC)C2SC1(C)C (some centres undefined) |  | inactive: -20%
